Laboratory results taken from the supplement of paper PMC12217912.
This is one part of the list. The full chains were built here from the parent and the listed change. Inactive controls read about 0.05.

B1: TEV protease; numbered along this chain (parent)
chain: MGESLFKGPRDYNPISSSICHLTNESDGHTTSLYGIGFGPFIITNKHLFRRNNGTLVVQSLHGVFKVKDTTTLQQHLVDGRDMIIIRMPKDFPPFPQKLKFREPQREERICLVTTNFQTKSMSSMVSDTSCTFPSGDGIFWKHWIQTKDGQCGSPLVSTRDGFIVGIHSASNFTNTNNYFTSVPKNFMELLTNQEAQQWVSGWRLNADSVLWGGHKVFMVKPEEPFQPVKEATQL

Variants of: B1
Experiment: raw area under fraction-flipped curve 0-4 h after induction (AUC4h, not background-subtracted), DNA-recorder readout of cleavage of the substrate (dimensionless); higher = more cleavage of the substrate by the protease variant
Conditions: temperature: 34 °C; time window: 0-4 h after rhamnose induction
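Note: Bxb1 expression induced with 0.2% (w/v) L-rhamnose at OD600 near 0.5, cultures sampled hourly, flipped fraction per protease–substrate barcode pair counted by paired-end Illumina sequencing.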

Row | Variant | area with substrate ENCYFQS | area with substrate ENDYFQS | area with substrate ENEYFQS | area with substrate ENGYFQS | area with substrate ENIYFQS | area with substrate ENQYFQS | area with substrate ENSYFQS | area with substrate ENTYFQS | area with substrate ENVYFQS | area with substrate ENFYFQS
1 | T70F | 0.0637 | 0.0674 | 0.0416 | 0.0597 | 0.0801 | 0.0537 | 0.0572 | 0.0575 | 0.0483 | –
2 | D82V | 0.053 | – | 0.0421 | – | – | – | 0.0496 | 0.0571 | 0.0495 | 0.0508
3 | R87V | 0.0469 | 0.0673 | – | – | – | 0.0582 | – | – | – | 0.0548
4 | P89C | 0.0565 | – | – | – | – | – | – | – | – | –
5 | F92L | 0.0715 | 0.0769 | – | – | 0.101 | 0.0613 | – | 0.0563 | 0.0753 | 0.0617
6 | F95N | 0.0582 | 0.0576 | – | – | – | 0.0471 | 0.0562 | – | – | 0.0627
7 | L99M | 0.0733 | 0.0554 | 0.0442 | 0.0321 | – | 0.0546 | – | 0.0545 | 0.0041 | 0.0749
8 | R102N | 0.0486 | 0.0456 | – | – | – | – | – | – | 0.0451 | –
9 | E103P | 0.0508 | 0.0641 | – | – | – | 0.0529 | – | – | 0.072 | –
10 | E103S | 0.0625 | – | – | – | – | – | 0.07 | – | – | 0.0699
11 | R109K | 0.0469 | 0.0352 | – | – | – | 0.0508 | 0.0662 | – | 0.0639 | –
12 | I110R | 0.0541 | 0.0817 | 0.0604 | 0.0627 | – | – | – | – | 0.0587 | 0.0593
13 | C111A | 0.0819 | – | – | 0.0516 | 0.0982 | – | 0.062 | 0.0689 | 0.106 | 0.0456
14 | V113Y | 0.0722 | 0.0598 | 0.0648 | – | – | 0.0587 | 0.0695 | – | – | –
15 | T114L | 0.0887 | – | 0.0634 | 0.0507 | 0.133 | – | 0.0601 | 0.0705 | 0.0954 | 0.0591
16 | Q118L | 0.0686 | 0.0624 | 0.0717 | – | – | – | – | – | – | –
17 | M125W | 0.0573 | 0.0555 | – | 0.0666 | – | 0.0454 | 0.0524 | – | – | –
18 | M125Y | 0.0623 | – | – | 0.0581 | – | – | 0.0498 | 0.0712 | – | –
19 | C131E | 0.0785 | 0.0709 | – | – | – | 0.0627 | – | – | 0.0696 | –
20 | T132K | 0.036 | – | – | – | – | – | – | – | – | –
21 | D137A | 0.0571 | – | 0.0618 | 0.0708 | – | 0.0598 | 0.0778 | 0.0584 | – | –
22 | D137H | 0.0657 | 0.0645 | 0.0475 | 0.0541 | – | 0.0737 | 0.0315 | 0.0702 | – | –
23 | G138Y | 0.047 | 0.075 | 0.0635 | – | 0.0945 | 0.0855 | 0.0606 | – | – | –

Same assay, conditions: temperature: 34 °C; time window: 0-4 h after rhamnose induction

Row | Variant | area with substrate ENRYFQS | area with substrate ENPYFQS | area with substrate ENKYFQS | area with substrate ENNYFQS | area with substrate ENWYFQS | area with substrate ENYYFQS | area with substrate ENHYFQS | area with substrate ENMYFQS
24 | D82V | 0.058 | – | – | – | – | – | – | –
25 | P89C | – | 0.052 | – | – | – | – | – | –
26 | F92L | 0.0638 | – | 0.0646 | 0.071 | 0.0658 | – | – | –
27 | F95N | – | – | – | 0.0548 | 0.0414 | 0.0487 | – | –
28 | L99M | 0.055 | – | – | – | – | – | – | –
29 | R102N | – | – | – | – | – | – | 0.0602 | –
30 | E103P | 0.0608 | – | 0.0566 | – | – | – | 0.06 | 0.0642
31 | E103S | 0.0696 | – | – | – | – | – | 0.0476 | –
32 | R109K | – | 0.047 | – | 0.0735 | – | – | 0.049 | –
33 | I110R | – | – | – | 0.0505 | 0.0586 | – | 0.0386 | –
34 | C111A | – | – | – | – | – | – | 0.0465 | 0.0563
35 | V113Y | 0.0614 | – | 0.0503 | 0.0404 | – | – | – | 0.0655
36 | T114L | 0.0563 | – | – | – | – | 0.0815 | – | –
37 | Q118L | – | 0.0554 | – | – | 0.0469 | 0.0464 | – | –
38 | M125W | – | – | – | – | – | – | 0.053 | –
39 | M125Y | – | – | – | 0.0317 | – | – | – | 0.073
40 | D137A | – | 0.108 | – | 0.0739 | – | – | 0.0301 | –
41 | D137H | – | – | – | – | 0.0565 | – | – | –
42 | G138Y | 0.0582 | 0.0592 | – | – | – | – | 0.0559 | –
